Reference: the supplement of paper PMC12217912
The other results are listed elsewhere or left out. Sequences were assembled here from the parent chain. Values near 0.05 are background.

B1: TEV protease; numbered along this chain (parent)
chain: MGESLFKGPRDYNPISSSICHLTNESDGHTTSLYGIGFGPFIITNKHLFRRNNGTLVVQSLHGVFKVKDTTTLQQHLVDGRDMIIIRMPKDFPPFPQKLKFREPQREERICLVTTNFQTKSMSSMVSDTSCTFPSGDGIFWKHWIQTKDGQCGSPLVSTRDGFIVGIHSASNFTNTNNYFTSVPKNFMELLTNQEAQQWVSGWRLNADSVLWGGHKVFMVKPEEPFQPVKEATQL

Variants of: B1
Test: raw area under fraction-flipped curve 0-4 h after induction (AUC4h, not background-subtracted), DNA-recorder readout of cleavage of the substrate (dimensionless); higher = more cleavage of the substrate by the protease variant
Conditions: temperature: 34 °C; time window: 0-4 h after rhamnose induction
Experimental: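 In vivo DNA recorder in E. coli TOP10(DE3) ΔrhaA at 34 °C. Each TEVp single-site mutant (parent TEVp 0) is paired with a single-site variant of the 7-mer TEVs (canonical ENLYFQ|S). The substrate sits between flexible linkers in a Bxb1-sfGFP-TEVs-SsrA fusion, so cleavage stabilises Bxb1 and speeds flipping of a recombination array, read by NGS. The value is the raw area under the fraction-flipped curve over 0-4 h after rhamnose induction (AUC4h), with ≥20 reads per time point. It is not background-subtracted; inactive controls average about 0.047.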
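Further: Bxb1 expression induced with 0.2% (w/v) L-rhamnose at OD600 near 0.5, cultures sampled hourly, flipped fraction per protease–substrate barcode pair counted by paired-end Illumina sequencing.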

Variant	area with substrate ENLYAQS	area with substrate ENLYCQS	area with substrate ENLYDQS	area with substrate ENLYEQS	area with substrate ENLYGQS	area with substrate ENLYHQS	area with substrate ENLYIQS	area with substrate ENLYKQS	area with substrate ENLYLQS	area with substrate ENLYMQS	area with substrate ENLYNQS	area with substrate ENLYPQS	area with substrate ENLYQQS	area with substrate ENLYRQS	area with substrate ENLYSQS	area with substrate ENLYTQS	area with substrate ENLYVQS	area with substrate ENLYWQS	area with substrate ENLYYQS
MGESLFKGPRDYNPISSSICHLTVESDGHTTSLYGIGFGPFIITNKHLFRRNNGTLVVQSLHGVFKVKDTTTLQQHLVDGRDMIIIRMPKDFPPFPQKLKFREPQREERICLVTTNFQTKSMSSMVSDTSCTFPSGDGIFWKHWIQTKDGQCGSPLVSTRDGFIVGIHSASNFTNTNNYFTSVPKNFMELLTNQEAQQWVSGWRLNADSVLWGGHKVFMVKPEEPFQPVKEATQL [N24V]	0.0636	0.0905	0.0643	0.0694	0.0691	0.0587	0.0769	0.0743	0.0561	0.0732	0.0588	0.0652	0.0656	0.0776	0.0622	0.0722	0.0911	0.0641	0.067
MGESLFKGPRDYNPISSSICHLTNCSDGHTTSLYGIGFGPFIITNKHLFRRNNGTLVVQSLHGVFKVKDTTTLQQHLVDGRDMIIIRMPKDFPPFPQKLKFREPQREERICLVTTNFQTKSMSSMVSDTSCTFPSGDGIFWKHWIQTKDGQCGSPLVSTRDGFIVGIHSASNFTNTNNYFTSVPKNFMELLTNQEAQQWVSGWRLNADSVLWGGHKVFMVKPEEPFQPVKEATQL [E25C]	0.0845	0.112	0.0478	0.07	0.0706	–	0.123	0.0685	0.11	0.0923	0.0776	0.0844	0.0674	0.0544	0.0637	0.0765	0.116	0.0828	0.0696
MGESLFKGPRDYNPISSSICHLTNISDGHTTSLYGIGFGPFIITNKHLFRRNNGTLVVQSLHGVFKVKDTTTLQQHLVDGRDMIIIRMPKDFPPFPQKLKFREPQREERICLVTTNFQTKSMSSMVSDTSCTFPSGDGIFWKHWIQTKDGQCGSPLVSTRDGFIVGIHSASNFTNTNNYFTSVPKNFMELLTNQEAQQWVSGWRLNADSVLWGGHKVFMVKPEEPFQPVKEATQL [E25I]	0.067	–	0.0435	–	–	0.067	0.108	0.0526	–	0.0698	0.069	0.0715	0.0649	0.0485	0.0732	0.086	0.116	–	–
MGESLFKGPRDYNPISSSICHLTNESDGHTQSLYGIGFGPFIITNKHLFRRNNGTLVVQSLHGVFKVKDTTTLQQHLVDGRDMIIIRMPKDFPPFPQKLKFREPQREERICLVTTNFQTKSMSSMVSDTSCTFPSGDGIFWKHWIQTKDGQCGSPLVSTRDGFIVGIHSASNFTNTNNYFTSVPKNFMELLTNQEAQQWVSGWRLNADSVLWGGHKVFMVKPEEPFQPVKEATQL [T31Q]	0.0696	–	0.0541	0.0608	–	0.0654	–	–	0.0612	0.0732	–	0.0703	0.0838	0.0474	–	–	–	0.123	–
MGESLFKGPRDYNPISSSICHLTNESDGHTTCLYGIGFGPFIITNKHLFRRNNGTLVVQSLHGVFKVKDTTTLQQHLVDGRDMIIIRMPKDFPPFPQKLKFREPQREERICLVTTNFQTKSMSSMVSDTSCTFPSGDGIFWKHWIQTKDGQCGSPLVSTRDGFIVGIHSASNFTNTNNYFTSVPKNFMELLTNQEAQQWVSGWRLNADSVLWGGHKVFMVKPEEPFQPVKEATQL [S32C]	0.0781	0.104	0.0672	0.0684	0.0689	0.0745	0.131	0.0582	–	0.0552	0.0707	0.0776	0.0733	0.0558	0.085	0.0883	0.0875	–	–
MGESLFKGPRDYNPISSSICHLTNESDGHTTFLYGIGFGPFIITNKHLFRRNNGTLVVQSLHGVFKVKDTTTLQQHLVDGRDMIIIRMPKDFPPFPQKLKFREPQREERICLVTTNFQTKSMSSMVSDTSCTFPSGDGIFWKHWIQTKDGQCGSPLVSTRDGFIVGIHSASNFTNTNNYFTSVPKNFMELLTNQEAQQWVSGWRLNADSVLWGGHKVFMVKPEEPFQPVKEATQL [S32F]	0.0738	–	–	0.0624	0.0661	0.0691	0.125	0.0691	0.0748	0.0726	0.07	0.0661	0.0799	0.0546	0.0532	0.0671	0.0856	0.0705	–
MGESLFKGPRDYNPISSSICHLTNESDGHTTTLYGIGFGPFIITNKHLFRRNNGTLVVQSLHGVFKVKDTTTLQQHLVDGRDMIIIRMPKDFPPFPQKLKFREPQREERICLVTTNFQTKSMSSMVSDTSCTFPSGDGIFWKHWIQTKDGQCGSPLVSTRDGFIVGIHSASNFTNTNNYFTSVPKNFMELLTNQEAQQWVSGWRLNADSVLWGGHKVFMVKPEEPFQPVKEATQL [S32T]	0.0713	0.115	0.0703	0.0577	–	0.0722	0.141	0.0588	0.0719	–	0.0349	0.0772	0.0632	0.0622	0.0602	0.0712	0.122	0.0881	–
MGESLFKGPRDYNPISSSICHLTNESDGHTTVLYGIGFGPFIITNKHLFRRNNGTLVVQSLHGVFKVKDTTTLQQHLVDGRDMIIIRMPKDFPPFPQKLKFREPQREERICLVTTNFQTKSMSSMVSDTSCTFPSGDGIFWKHWIQTKDGQCGSPLVSTRDGFIVGIHSASNFTNTNNYFTSVPKNFMELLTNQEAQQWVSGWRLNADSVLWGGHKVFMVKPEEPFQPVKEATQL [S32V]	0.0679	–	0.0649	0.067	0.0745	0.0654	0.111	0.0642	–	0.0832	0.0743	0.0624	–	0.0478	0.0549	0.0768	0.106	0.0749	0.0624
MGESLFKGPRDYNPISSSICHLTNESDGHTTSSYGIGFGPFIITNKHLFRRNNGTLVVQSLHGVFKVKDTTTLQQHLVDGRDMIIIRMPKDFPPFPQKLKFREPQREERICLVTTNFQTKSMSSMVSDTSCTFPSGDGIFWKHWIQTKDGQCGSPLVSTRDGFIVGIHSASNFTNTNNYFTSVPKNFMELLTNQEAQQWVSGWRLNADSVLWGGHKVFMVKPEEPFQPVKEATQL [L33S]	0.0595	–	0.057	0.06	0.0539	0.0696	0.0806	0.0308	0.0602	0.0748	0.0605	0.0625	0.0627	0.053	0.0755	–	0.0943	0.0726	0.0613
